{"source": "PubChem BioAssay AID686970", "about": "(National Center for Advancing Translational Sciences (NCATS), 2013)", "note": "The campaign covered roughly 360,000 compounds. About 6,000 (1.7%) were called active. Inconclusive means that the source gave no clear call. Such entries were picked first, then a sample of the others. The call rests on the fitted dose curve; in most records, active means well fitted cell-killing curve with a large enough effect; inconclusive means small, poorly fitted or top-dose-only effect, or effect the other way; inactive means flat fitted curve, though single readings scatter. Potencies of inconclusive entries are left out as doubtful fits. Potency means the concentration at half of the fitted maximal effect; tags describe the fitted curve by direction and shape."}
{"assay": "qHTS for induction of synthetic lethality in tumor cells producing 2HG: qHTS for the HT-1080-NT fibrosarcoma cell line;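 further: NT is the 2HG producing partner of a matched IDH1 knockdown line; nearly all actives have a fitted effect of over 55% in size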;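 on activity, negative = less viability: 0% = DMSO-treated cells and -100% = media-only wells without cells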", "settings": "HT-1080-NT fibrosarcoma viability, CellTiter-Glo ATP luminescence, 48 h; activity, negative = less viability: at 46.1 µM (top of the series) unless noted", "outline": "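Compounds were tested in concentration-response format on HT-1080-NT cells for 48 hours at 37 degrees C. Cell viability came from CellTiter-Glo luminescence; curves were classified by r2, response magnitude and activity.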"}
{"smiles": "COc1ccc(Cn2c(SCc3cc(C)ccc3C)nc3cc(OC)c(OC)cc3c2=N)cc1", "Potency": "inconclusive [cytotoxic, single point]"}
{"smiles": "Clc1ccccc1NN(Cc1ccncc1)c1ccccc1Cl", "Potency": "inconclusive [cytotoxic, single point]"}
{"smiles": "CCCCOCCCNC(=O)C[C@@H]1C[C@@]2(C(=O)OC)CC(C)(C)CC=C2N(Cc2ccc3c(c2)OCO3)C1=O", "Potency": "inconclusive [cytotoxic, partial curve]"}
{"smiles": "O=C(NC(c1ccccc1)c1ccc2ccccc2n1)C1CCN(Cc2cccc(C(F)(F)F)c2)CC1", "note": "(centres undefined)", "Potency": "inconclusive [cytotoxic, single point]"}
{"smiles": "COc1ccc(/C=N/NC(=O)c2ccn[nH]2)cc1COc1ccc(Cl)cc1Cl", "Potency": "inconclusive [cytotoxic, single point]"}
{"smiles": "CCN(CC)S(=O)(=O)c1ccc(NC(=O)C(OC)c2ccccc2)cc1", "note": "(centres undefined)", "Potency": "inactive"}
{"smiles": "O=S(=O)(NCCSc1nnnn1-c1ccccc1)c1cccs1", "Potency": "inactive"}
{"smiles": "CCN(CC)c1ccc(C(=O)N/N=C(\\C)c2ccc(O)cc2)cc1", "Potency": "inconclusive [cytotoxic, full curve, poor fit]"}
{"smiles": "Cn1nc(C(C)(C)C)cc1C(=O)NCc1ccc(N2CCCC2=O)cc1", "Potency": "inconclusive [cytotoxic, partial curve]"}
{"smiles": "COc1ccc(S(=O)(=O)N2CCCC(c3cc(C(=O)NCc4cccnc4)no3)C2)cc1", "note": "(centres undefined)", "Potency": "inconclusive [rising, partial curve]"}
{"smiles": "O=C(Nc1cc(Cl)cc(Cl)c1)c1coc(=O)c(Br)c1", "Potency": "inactive"}
{"smiles": "Oc1ccc(/C=N/n2c3ccccc3c3ccccc32)cc1", "Potency": "inconclusive [cytotoxic, single point]"}
{"smiles": "O=C1N[C@@H](Cc2c[nH]c3ccccc23)COC(=O)[C@H](Cc2ccc(F)cc2)C/C=C\\C[C@@H]1CC(=O)N(CCO)Cc1ccccc1", "Potency": "inconclusive [cytotoxic, single point]"}
{"smiles": "COc1ccc(S(=O)(=O)N2CN(Cc3ccco3)c3nc4ccccc4nc32)cc1", "Potency": "inconclusive [cytotoxic, single point]"}
{"smiles": "Cc1c(C)n(CCCN(C)C)c2ncnc(Nc3ccc(F)cc3)c12", "Potency": "inactive"}
{"smiles": "Cc1cc(C)c2nc(N(CCCN(C)C)C(=O)c3ccc4c(c3)OCCO4)sc2c1", "Potency": "active: 11.6 µM"}
{"smiles": "CO[C@@H]1CN(C)C(=O)c2ccc(NS(=O)(=O)c3c(C)noc3C)cc2OC[C@@H](C)NC[C@@H]1C", "Potency": "inactive"}
{"smiles": "Clc1ccc(Cn2c(-c3cccnc3Cl)nc3ccccc32)c(Cl)c1", "Potency": "inconclusive [cytotoxic, single point]"}
{"smiles": "COc1ccc(C(=O)c2c(C)c3ccccc3n2CC(O)CNC(C)C)cc1", "note": "(centres undefined)", "Potency": "inconclusive [cytotoxic, single point]"}
{"smiles": "CCCCCCCCN1C(=O)[C@H](CC(=O)NCc2ccccc2)C[C@@]2(C(=O)OC)CC(C)(C)CC=C12", "Potency": "inconclusive [cytotoxic, single point]"}
{"smiles": "CCc1ccc(OCCNc2cc(N3CCNC(C)C3)ccc2[N+](=O)[O-])cc1", "note": "(centres undefined)", "Potency": "inconclusive [cytotoxic, single point]"}
{"smiles": "Cc1nc(N2CCCCC2)c2c(C)c(C(=O)Nc3cccc(C(F)(F)F)c3)sc2n1", "Potency": "inconclusive [cytotoxic, single point]"}
{"smiles": "CC1=C(C(N)=O)C(c2ccccc2[N+](=O)[O-])n2ncnc2N1", "note": "(centres undefined)", "Potency": "inactive"}
{"smiles": "Cc1[nH]n(-c2ncc(-c3ccc(Cl)cc3)s2)c(=O)c1C(c1ccc(Cl)cc1)C(C#N)C#N", "note": "(centres undefined)", "Potency": "inconclusive [cytotoxic, single point]"}
{"smiles": "Cc1c(C)c(C)c(CO/N=C/c2cccs2)c(C)c1C", "Potency": "inconclusive [cytotoxic, partial curve]"}
{"smiles": "CC(=O)N1c2ccc(C)cc2Sc2c1ccc1ccccc21", "Potency": "inconclusive [cytotoxic, single point]"}
{"smiles": "CCCNC(=O)C1(C)CCCN(C(=O)c2ccc3sccc3c2)C1", "note": "(centres undefined)", "activity, negative = less viability": "inconclusive: 31.5%"}
{"smiles": "COc1ccc(-c2nnnn2-c2ccccc2OC)cc1", "Potency": "inconclusive [cytotoxic, single point]"}
{"smiles": "O=C(Nc1ccc(N2CCOCC2)cc1)c1cn2ccccc2n1", "Potency": "inactive"}
{"smiles": "c1ccc(-c2ccc(C3=Nn4c(nnc4-c4cc(-c5ccccc5)n[nH]4)SC3)cc2)cc1", "Potency": "inconclusive [cytotoxic, single point]"}
{"smiles": "O=C(COC(=O)COc1ccc(Cl)cc1Br)NC1CC1", "Potency": "inactive"}
{"smiles": "COc1ccc2c(c1OC)C(=O)OC2Nc1nc(-c2ccccc2)cs1", "note": "(centres undefined)", "Potency": "active: 18.4 µM"}
{"smiles": "CCC(C(=O)NC1CCCC1)N(Cc1cccs1)C(=O)Cn1nnc(-c2ccc(OC)c(OC)c2)n1", "note": "(centres undefined)", "Potency": "inactive"}
{"smiles": "Cc1ccc(C(C(=O)NCc2ccccc2)N(Cc2ccco2)C(=O)c2snc(C(N)=O)c2N)o1", "note": "(centres undefined)", "Potency": "inactive"}
{"smiles": "Cn1c(N)c(C(=O)CSc2ccc3c(c2)OCCO3)c(=O)n(C)c1=O", "Potency": "inactive"}
{"smiles": "CN(C(=O)COC(=O)c1cccc(S(=O)(=O)N2CCCCC2)c1)C1CCS(=O)(=O)C1", "note": "(centres undefined)", "Potency": "inactive"}
{"smiles": "Cc1cc(C)c(S(=O)(=O)Nc2ccc(-c3cn4ccccc4n3)cc2)c(C)c1", "Potency": "inactive"}
{"smiles": "C/C(CC(=O)Nc1cccc(C(F)(F)F)c1)=N\\NC(=O)c1cnccn1", "Potency": "inactive"}
{"smiles": "Cc1cc2cc(CN(CCCN3CCOCC3)C(=O)NC3CCCCC3)c(=O)[nH]c2cc1C", "Potency": "inconclusive [cytotoxic, single point]"}
{"smiles": "Cc1oc2c(C)c3oc(=O)c(CCC(=O)NCCCCCC(=O)O)c(C)c3cc2c1C", "Potency": "inactive"}
{"smiles": "O=C(c1cc(COc2cccc3cnccc23)on1)N1CCCC(CCCO)C1", "note": "(centres undefined)", "activity, negative = less viability": "inconclusive: -25.5% [cytotoxic]"}
{"smiles": "CN1CCN(c2nc(-c3cccc([N+](=O)[O-])c3)nc3ccccc23)CC1", "Potency": "inconclusive [cytotoxic, single point]"}
{"smiles": "CCC(=O)Nc1ccc(NC(=O)c2ccco2)c(OC)c1", "Potency": "inconclusive [rising, partial curve]"}
{"smiles": "O=C(c1ccc(Cl)cc1)C(CN1CCCCC1)c1ccccc1", "note": "(centres undefined)", "Potency": "active: 5.8 µM"}
{"smiles": "CNc1cc(N2CCCC2)ccc1[N+](=O)[O-]", "Potency": "inactive"}
{"smiles": "CCOC(=O)C1Nc2ccccc2C2C(O)C(O)CC12", "note": "(centres undefined)", "Potency": "inconclusive [cytotoxic, single point]"}
{"smiles": "COc1cccc(-c2cnc(C(O)c3ccc(C(C)(C)C)cc3)[nH]2)c1", "note": "(centres undefined)", "Potency": "inconclusive [cytotoxic, single point]"}
{"smiles": "Cc1ccc(NC(=O)C(=Cc2ccc(C(=O)O)cc2)C(=O)Nc2ccc(C)cc2C)c(C)c1", "Potency": "active: 14.6 µM"}
{"smiles": "Cc1ccc(NC(=O)CNCc2cccs2)cc1Br", "Potency": "inconclusive [rising, partial curve]"}
{"smiles": "CCOC(=O)N1CCN(c2cc(NCCC(=O)O)c3c4c(onc24)-c2ccccc2C3=O)CC1", "Potency": "inconclusive [cytotoxic, single point]"}
{"smiles": "COCCCN1C(=O)C(CC(=O)NCCCN(C)C)CC(C(=O)N2CCCCCC2)=C1C", "note": "(centres undefined)", "Potency": "inactive"}
{"smiles": "CCc1nc2c(OCC3COc4ccccc4O3)cccn2c1N(C)C(=O)c1ccccc1F", "note": "(centres undefined)", "Potency": "inconclusive [rising, full curve, poor fit]"}
{"smiles": "O=C(CCN1C(=O)/C(=C/C=C/c2ccccc2)SC1=S)Nc1ccccn1", "activity, negative = less viability": "inconclusive: -37.5% [cytotoxic]"}
{"smiles": "CCOc1cccc2sc(N(CCCN(C)C)C(=O)c3ccc(S(=O)(=O)N(C)c4ccccc4)cc3)nc12", "Potency": "inconclusive [cytotoxic, single point]"}
{"smiles": "c1ccc(-c2nc(NCc3cccs3)c3ccccc3n2)cc1", "Potency": "inconclusive [cytotoxic, single point]"}
{"smiles": "Cc1cc(Cl)ccc1OC(C)C(=O)Nc1ccc(S(=O)(=O)N2CCOCC2)cc1", "note": "(centres undefined)", "Potency": "inconclusive [cytotoxic, single point]"}
{"smiles": "CCc1cccc(OCC(=O)Nc2ccc(C(=O)O)cc2NC(=O)COc2cccc(CC)c2)c1", "Potency": "inconclusive [cytotoxic, single point]"}
{"smiles": "CCc1nnc(NC(=O)CSc2nnc(-c3ccccc3O)o2)s1", "Potency": "inactive"}
{"smiles": "CC(O)(c1cccnc1)c1nc(-c2cccc(C(F)(F)F)c2)cs1", "note": "(centres undefined)", "Potency": "active: 23.1 µM"}
{"smiles": "COc1ccc2cc(CN(Cc3ccco3)Cc3nnnn3C3CCCCC3)c(=O)[nH]c2c1", "Potency": "inconclusive [cytotoxic, single point]"}
{"smiles": "Cc1cccc(NC(=O)c2cc3n(n2)C(C(F)(F)F)CC(c2ccc4c(c2)OCO4)N3)c1", "note": "(centres undefined)", "Potency": "inconclusive [cytotoxic, single point]"}
{"smiles": "NNC(=O)c1ccc(N2CCCCCC2)c([N+](=O)[O-])c1", "Potency": "inconclusive [cytotoxic, single point]"}
{"smiles": "Cc1cc(F)ccc1-c1cc(C(=O)NCc2ccc(C(F)(F)F)cc2)[nH]n1", "activity, negative = less viability": "inconclusive: -59.2%"}
{"smiles": "CCc1nnc(NC(=O)c2cnccn2)s1", "Potency": "inactive"}
{"smiles": "COC(=O)[C@]12CCCCC=C1N(Cc1ccco1)C(=O)[C@H](CC(=O)N1CCN(C(=O)C3CC3)CC1)C2", "Potency": "inactive"}
{"smiles": "COc1cccc(-c2cnc3c(NC=O)cc(-c4ccccc4Oc4ccccc4)cn23)c1", "Potency": "inconclusive [cytotoxic, single point]"}
{"smiles": "O=C(CSc1cccc2cccnc12)Nc1ccc(S(=O)(=O)N2CCOCC2)cc1", "Potency": "inconclusive [cytotoxic, single point]"}
{"smiles": "CCOc1ccc(OCCC(=O)N(CC)CC(=O)NCc2ccc(Cl)cc2)cc1", "Potency": "inactive"}
{"smiles": "c1ccc(CCNc2nc(-c3ccncc3)nc3ccccc23)cc1", "Potency": "inconclusive [cytotoxic, partial curve]"}
